# Experimental data taken from PubChem BioAssay (NCATS).
# Several values for one entry are separate records, joined by “and”; a condition that tells them apart may be missing. Equal values may be shown once. This list was built around the results that the source calls inconclusive (neither active nor inactive); the mix of calls is not that of the screen. For some of these results: Potencies of inconclusive entries are doubtful fits and often do not repeat. Activity calls are given as the source filed them. Unless noted, the call rests on the fitted dose curve; in most records, active means well fitted curve in the direction sought with a large enough effect; inconclusive means small, poorly fitted or top-dose-only effect, or another doubt; inactive means no such curve, though single readings can be large; an effect the other way counts as inactive or inconclusive.
# Columns and labels:
# [1] = NCATS anti-infectives library activity on HEK293 viability as a counter-qHTS vs the C. elegans viability qHTS (AID 1745854);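 further: potency means the concentration at half of the fitted maximal effect; HEK293 cells exposed to compounds for 24 hr before the viability read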
# Outline: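 Counter-screen for cytotoxicity: HEK293, 24 hr, 37C, compounds up to 41.7 uM final (a dilution series, 1:5). Readout CellTiter-Glo luminescence, 10 min RT. Digitonin control, […] uM final.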
# [2] = A High-Content qHTS Against Drug Library for the Identification of Small Molecules that Inhibit DYT1 Early Onset Primary Dystonia-Associated Cell Pathology (AID 1645839; calls by dose curve; further: series mostly up to about 46 µM)
# Outline: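 High-content imaging quantified EGFP-TorsinA mislocalization in HEK293-derived cells inducibly expressing DYT1 mutant torsinA, after 48 h exposure to compound given together with tetracycline induction. Cell count served as a toxicity channel alongside %pathology.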
# [3] = target: Papain (Carica papaya) (UniProt P00784); experiment: Primary qHTS assay for inhibitors of the protease papain (AID 1645873);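 further: papain turnover of Z-FR-AMC read as the AMC fluorescence gain over 10 min; potency means the concentration at half of the fitted maximal effect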
# [4] = target: N-terminal Xaa-Pro-Lys N-methyltransferase 1 (Homo sapiens) (UniProt Q9BV86); experiment: Confirmatory qHTS for Inhibitors of N-terminal methyltransferase 1 (NTMT1): MTaseGlo Assay (AID 1645874);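 further: luminescence from SAH made as NTMT1 methylates SPKRIA peptide using SAM; series mostly up to about 100 µM; nearly all actives have a fitted effect of over 65% in size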
# Outline: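 MTase-Glo luminescence measured SAH formed by 125 nM NTMT1 from 100 uM SAM and 1 uM SPKRIA peptide over 30 min at room temperature, following 15 min compound preincubation. Percent inhibition against no-enzyme and DMSO controls gave 4-parameter Hill fits.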
# [5] = Primary qHTS for inhibitors of nuclear receptor binding SET domain protein 2 (NSD2) in an isogenic RCH-ACV NSD2 p.E1099K mutant (9B) (AID 1645876); further: nearly all actives have a fitted effect of over 70% in size; further: potency means the concentration at half of the fitted maximal effect
# [6] = target: Cytochrome P450 2C9 (Homo sapiens) (UniProt P11712); experiment: Cytochrome P450 family 2 subfamily C member 9 (CYP2C9) small molecule antagonists: luciferase biochemical (cell-free) qHTS assay (AID 1645842; active means well fitted curve in the direction sought with a large enough effect in the repeat runs; inconclusive means weak or mixed curves; inactive means no such curve, though single readings can be large; an effect the other way counts as inactive or inconclusive; further: nearly all actives have a fitted effect of over 55% in size; further: potency means the concentration at half of the fitted maximal effect)
# Outline: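 P450-Glo CYP2C9 system: proluciferin substrate with enzyme in mix containing 0.4% BSA, 10 min at room temperature, then NADPH regeneration solution added and incubated 1 h at 37C. Detection reagent stopped reaction; luminescence read after 20 min as RLU.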
# [7] = Primary qHTS for inhibitors of nuclear receptor binding SET domain protein 2 (NSD2) in an RCH-ACV wild type WT cells (2C) (AID 1645877); further: nearly all actives have a fitted effect of over 70% in size; further: potency means the concentration at half of the fitted maximal effect
# [8] = NCATS anti-infectives library activity on the primary C. elegans qHTS viability assay (AID 1745855; calls by dose curve; further: potency means the concentration at half of the fitted maximal effect)
# Outline: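 GFP read-out by 488 nm laser cytometry at day 0, 3 and 7, gated on object perimeter, area and peak intensity, scored viability of PE254-GFP-FLuc worms exposed to compound in S medium with bacterial capsules at 21 °C.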
# Tags describe the fitted curve by direction and shape.
# UniProt P11712, sequence (P11712 whole entry, looked up): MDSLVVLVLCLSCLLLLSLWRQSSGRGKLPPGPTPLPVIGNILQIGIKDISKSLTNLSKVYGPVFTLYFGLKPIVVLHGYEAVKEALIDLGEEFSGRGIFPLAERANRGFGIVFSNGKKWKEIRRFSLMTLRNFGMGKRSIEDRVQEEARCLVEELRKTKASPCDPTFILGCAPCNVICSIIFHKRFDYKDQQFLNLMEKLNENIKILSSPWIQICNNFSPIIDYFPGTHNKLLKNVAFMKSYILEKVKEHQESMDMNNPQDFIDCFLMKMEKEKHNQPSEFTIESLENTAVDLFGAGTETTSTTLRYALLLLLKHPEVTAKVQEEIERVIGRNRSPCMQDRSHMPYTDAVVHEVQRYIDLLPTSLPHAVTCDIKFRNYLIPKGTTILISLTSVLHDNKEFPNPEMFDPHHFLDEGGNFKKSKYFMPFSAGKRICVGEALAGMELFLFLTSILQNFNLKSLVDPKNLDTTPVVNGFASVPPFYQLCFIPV
# UniProt P00784, sequence (P00784 whole entry, looked up): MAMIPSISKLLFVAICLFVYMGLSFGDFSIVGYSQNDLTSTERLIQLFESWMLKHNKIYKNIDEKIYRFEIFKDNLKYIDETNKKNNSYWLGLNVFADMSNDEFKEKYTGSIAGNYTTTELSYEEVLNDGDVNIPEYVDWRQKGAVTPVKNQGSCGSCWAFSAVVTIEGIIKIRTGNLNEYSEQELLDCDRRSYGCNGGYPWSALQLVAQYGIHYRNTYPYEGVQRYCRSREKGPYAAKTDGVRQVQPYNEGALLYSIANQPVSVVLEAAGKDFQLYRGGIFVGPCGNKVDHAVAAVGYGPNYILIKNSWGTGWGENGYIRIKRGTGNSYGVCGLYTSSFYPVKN
# UniProt Q9BV86, sequence (Q9BV86 whole entry, looked up): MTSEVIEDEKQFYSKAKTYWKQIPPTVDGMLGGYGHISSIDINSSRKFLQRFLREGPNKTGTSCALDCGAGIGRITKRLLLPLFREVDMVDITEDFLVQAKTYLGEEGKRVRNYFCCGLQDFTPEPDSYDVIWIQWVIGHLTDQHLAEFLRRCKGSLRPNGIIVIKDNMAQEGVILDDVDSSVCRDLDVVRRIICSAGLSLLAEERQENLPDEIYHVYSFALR
compound,measurement,setting,value
CC(C)C[C@H](NC(=O)[C@H](CCc1ccccc1)NC(=O)CN1CCOCC1)C(=O)N[C@@H](Cc1ccccc1)C(=O)N[C@@H](CC(C)C)C(=O)[C@@]1(C)CO1,Potency,[1],"inconclusive: 0.0224 µM [cytotoxic, full curve, poor fit]"
CC(=O)OCC(CCn1cnc2cnc(N)nc21)COC(C)=O,Potency,[2],inactive
C[C@H]1c2cccc(O)c2C(O)=C2C(=O)[C@]3(O)C(O)=C(C(N)=O)C(=O)[C@@H](N(C)C)[C@@H]3[C@@H](O)[C@@H]21,Potency,[3],active: 22.4 µM
CCOc1ccc(Nc2nc(-c3c(C)nc4ccccn34)cs2)cc1,Potency,[4],inactive
Cc1ccc2c(c1)C(=O)[C@]1(O)CCN(c3ccccc3)C1=N2,Potency,[5],"inconclusive: 10.5 µM [inhibitor, full curve]"
O=c1ccc2ccc(O)c(O)c2o1,Potency,[3],"inconclusive: 15.8 µM [inhibitor, partial curve]"
CN(C)S(=O)(=O)c1ccc2c(c1)C(=Cc1cc3c([nH]1)CCCC3)C(=O)N2,Potency,[5],"inconclusive: 2.95 µM [inhibitor, full curve]"
CC1(C)[C@H](C(=O)O)N2C(=O)C[C@H]2S1(=O)=O,Potency,[6],inactive
Cc1nccn1CC1CCc2c(c3ccccc3n2C)C1=O (configuration not stated),Potency,[6],inactive
same,Potency,[5],"inconclusive: 33.5 µM [inhibitor, single point]"
same,Potency,[7],"inconclusive: 29.9 µM [inhibitor, single point]"
OCCCNc1cc(-c2ccnc(Nc3cccc(Cl)c3)n2)ccn1,Potency,[5],active: 29 nM and active: 52.5 nM
O=c1cc(O)c(Cl)c[nH]1,Potency,[6],inactive
O=C(O)CCC1CCC(c2cc(F)ccc2F)(S(=O)(=O)c2ccc(Cl)cc2)CC1 (configuration not stated),Potency,[6],"inconclusive: 21.3 µM [inhibitor, single point]"
same,Potency,[5],"inconclusive: 26.3 µM [inhibitor, single point]"
same,Potency,[7],"inconclusive: 26.3 µM [inhibitor, single point]"
same,Potency,[8],"inconclusive: 25.8 µM [inhibitor, single point]"
CCCCCCCCCCCCCC(=O)N[C@H](CO)[C@H](O)c1ccc([N+](=O)[O-])cc1,Potency,[5],"inconclusive: 5.25 µM [inhibitor, partial curve, poor fit]"
CC(=O)OCC(=O)[C@@]1(O)[C@H](C)C[C@H]2[C@@H]3C=C(C)C4=Cc5c(cnn5-c5ccccc5)C[C@]4(C)[C@@H]3[C@@H](O)C[C@@]21C,Potency,[5],"inconclusive: 29.5 µM [inhibitor, partial curve, poor fit]"
CN[C@@H](C)C(=O)N[C@H]1CCCC[C@H]2CC[C@@H](C(=O)N[C@@H](c3ccccc3)c3cn(CCCCc4ccc(CCCCn5cc([C@@H](NC(=O)[C@@H]6CC[C@@H]7CCCC[C@H](NC(=O)[C@H](C)NC)C(=O)N76)c6ccccc6)nn5)cc4)nn3)N2C1=O,Potency,[5],"inconclusive: 0.417 µM [inhibitor, full curve, poor fit]"
COC(=O)N1CCN(Cc2cccc(NC(=O)Nc3ccc(C)nc3)c2F)CC1,Potency,[6],"inconclusive: 15.1 µM [inhibitor, partial curve, poor fit]"
same,Potency,[5],"inconclusive: 18.3 µM [inhibitor, single point]"
same,Potency,[7],"inconclusive: 16.6 µM [inhibitor, partial curve, poor fit]"
N#Cc1ccc(Oc2ccc3c(c2)COB3O)cc1,Potency,[5],active: 5.9 µM
C[C@@]1(c2cc(-c3cncnc3)c(F)cc2F)CCSC(N)=N1,Potency,[5],inactive
Nc1ncnc2ccccc12,Potency,[5],inactive
CCCCc1ccc(NS(=O)(=O)c2ccc(C)c(C(=O)N3CCN(c4cccc(C)c4C)CC3)c2)cc1,Potency,[5],"inconclusive: 34 µM [inhibitor, partial curve]"
CCNC(=O)Nc1ccc2ncc(Nc3ccc(C)cc3)nc2n1,Potency,[5],inactive
O=C1CCCC(=O)C1C(=O)c1ccc(C(F)(F)F)cc1[N+](=O)[O-],Potency,[5],inactive
COc1nccc(-c2c(-c3ccc(F)cc3)ncn2C2CCC(O)CC2)n1 (configuration not stated),Potency,[6],inactive
same,Potency,[5],"inconclusive: 18.6 µM [inhibitor, partial curve] and inconclusive: 18.3 µM [inhibitor, single point]"
same,Potency,[7],"inconclusive: 29.1 µM [inhibitor, partial curve, poor fit]"
O=C(NC1CCOCC1)c1ccc(-c2cc(-c3cn[nH]c3-c3ccccn3)ccn2)cc1,Potency,[6],"inconclusive: 21.3 µM [inhibitor, partial curve, poor fit]"
COC1CCC(N(C(=O)C2CCC(C)CC2)c2cc(C3=CCCCC3)sc2C(=O)O)CC1 (configuration not stated),Potency,[6],"inconclusive: 21.3 µM [inhibitor, single point]"
same,Potency,[5],inactive
same,Potency,[7],inactive
CCN(C(=O)c1c(O)c2c(Cl)cccc2n(C)c1=O)c1ccccc1,Potency,[5],"inconclusive: 5.9 µM [inhibitor, full curve, poor fit]"
